This is an account of results in PubChem BioAssay AID463173 (ICCB-Longwood Screening Facility, Harvard Medical School, 2010).

Structures are written as SMILES. Among all 52,000 compounds or so, about 4,300 (8.3%) were called active. Rule as the data show it: active = survival mostly below about 52% (no sharp cut-off); inactive = mostly above about 56%. This is one part of the list.

The experiment deals with DeltatarO mutant. The experiment in a line: S. aureus survival, RN4220 and DeltatarO strains – OD600, teichoic acid synthesis inhibitors, primary screen (AID 463173). The note with it: S. aureus RN4220 wild type/DeltatarO growth, OD600, 18 h, hits give low values, screened at 18.75 µg/mL (by protocol).
In the case of `Cc1ccc(S(=O)(=O)c2nnn3c2nc(N(C)Cc2ccccc2)c2cc(Cl)ccc23)cc1C`, the survival is inactive: 108%. Then `CCCOc1ccc(C(=O)N(Cc2ccc(Cl)cc2)Cc2ccco2)cc1`, with inactive: 50%; and `Cc1cn2c(=O)cc(COC(=O)COc3ccc(C)c(C)c3)nc2s1`, with inactive: 67%.

For `O=C(c1ccccc1)N1CCC(c2nc3ccccc3[nH]2)CC1`, the survival is inactive: 86%. Then `COc1cc(NC(=O)CCS(=O)(=O)c2ccc(Br)cc2)cc(OC)c1`, with inactive: 102%; and `Cc1ccc(CNC(=O)c2ccc3c(c2)NC(=O)C(CS(=O)(=O)Cc2cccc(C)c2)N3)cc1` (configuration not stated), with inactive: 135%; and `CCCCN(C)C(=O)CN1C(=O)c2cccnc2Oc2ccc(Cl)cc21`, with inactive: 89%.

As for `CN(C(=O)CSc1nncn2c1cc1occc12)c1ccccc1`, the survival is inactive: 74%. Then `CCN(CC)C(=O)c1sc2c(c1C)c(=O)n(-c1ccccc1)c(=O)n2CC(=O)N(CC)c1cccc(C)c1`, with inactive: 87%; and `COc1cc(C(=O)Nc2cc(C)c(O)c(-c3nc4cc(Cl)ccc4o3)c2)cc(OC)c1OC`, with inactive: 61%; and `CCCOc1ccc(C2C(=O)N(C3CCCCCC3)CC(=O)N2C(C)C)cc1OC` (configuration not stated), with inactive: 96%. For the compound `Cc1cc2nn(-c3ccc(F)cc3)nc2cc1NC(=O)c1ccc(C(C)(C)C)cc1`, the survival was inactive: 60%. Then `COc1cc(CN(C(=O)c2ccccc2)c2ccccn2)cc(OC)c1OC`, with inactive: 78%; and `COc1ccc(-c2cn3cccnc3n2)cc1NC(=O)c1ccccc1C(F)(F)F`, with inactive: 84%. Then `COc1ccc2c(c1)c(=O)c(C(=O)c1ccc(F)cc1)cn2CC(=O)Nc1ccc2c(c1)OCCO2`, with inactive: 65%; and `CCOC(=O)/C(C#N)=C1\C(=O)Nc2ccccc21`, with inactive: 83%; and `O=C(CC(c1ccccc1)c1cc(Br)ccc1O)NCCN1CCOCC1` (configuration not stated), with inactive: 100%.

For the compound `O=C(NCc1cccs1)c1ccc2c(c1)sc1nc(-c3ccccc3)cn12`, the survival is inactive: 82%. Then `CC(C)c1ccc(-c2noc(SCC(=O)N3CCN(c4ccccc4F)CC3)n2)cc1`, with inactive: 92%. Then `Cn1c(CNC(=O)CSc2nc(-c3ccccc3F)nc3cc(=O)[nH]n23)nc2ccccc21`, with inactive: 74%; and `COc1ccc(Cn2ccn(CC(=O)Nc3cc(C)ccc3C)c(=O)c2=O)cc1`, with active: 47%; and `Cc1c(C(=O)N2CCC(C(=O)Nc3ccc(F)c(Cl)c3)CC2)sc2nc[nH]c(=O)c12`, with inactive: 97%. `Cc1nnc2c3ccccc3nc(Nc3ccc(F)cc3Cl)n12`: the survival was inactive: 83%.

For the compound `CCOc1ccc(-n2c(-c3ccc(Br)cc3)cc3c2CC(C)(C)CC3=O)cc1`, the survival was active: 17%. Consider `CCOC(=O)c1cc(-c2ccc(F)cc2)n(CCC(=O)Nc2nc3cc(C)c(C)cc3s2)c1C`, for which the survival was inactive: 85%. Then `COc1ccc(OCc2ccc(-c3nc(C#N)c(NCc4ccc(F)cc4)o3)o2)cc1`, with inactive: 73%; and `Cc1nc(N2CCCC2)ncc1C(=O)Nc1ccc(OC(F)(F)F)cc1`, with inactive: 78%. Then `Cc1ccc2c(CC(=O)Nc3nnc(C(C)C)s3)coc2c1C`, with inactive: 101%. Then `COc1cc(OC)cc(-n2c(=O)c3sccc3n(Cc3cc(=O)n4c(C)cccc4n3)c2=O)c1`, with inactive: 172%; and `OCCN1CCN(c2ncnc3c2cnn3-c2cccc(Cl)c2)CC1`, with inactive: 92%. On to `O=C(Cc1ccccc1)Nc1ccc2oc(-c3ccc(Br)cc3)nc2c1`, for which the survival is inactive: 75%.

For the compound `CC(C)(C)CC(C)(C)N=C1NS(=O)(=O)c2ccccc21`, the survival is inactive: 79%.

As for `COc1cccc(CNC(=O)Nc2cn(CC(C)C)c(=O)c3ccccc23)c1`, the survival is inactive: 75%.

Consider `COc1ccc(-c2oc3ncn4nc(-c5ccccc5OC)nc4c3c2-c2ccc(OC)cc2)cc1`, for which the survival is inactive: 112%. Then `Brc1ccc(CN2CCc3nc(Nc4ccccc4)ncc3C2)s1`, with inactive: 86%; and `O=C(c1ccc2c(c1)N(Cc1ccccc1F)C(=O)c1ccccc1S2=O)N1CCC(Cc2ccccc2)CC1` (configuration not stated), with inactive: 77%. For the compound `N#CCNC(=O)c1sc2ccccc2c1Cl`, the survival was inactive: 95%.

For `N#Cc1c(SCC(N)=O)nsc1SCC(N)=O`, the survival is inactive: 74%.

For `COc1ccc(N(Cc2cc3cc(OC)ccc3[nH]c2=O)C(=O)c2cccc(Cl)c2)cc1`, the survival was inactive: 88%. Then `CC(C)C(c1nnnn1C1CCCC1)N1CCc2ccccc21` (configuration not stated), with inactive: 76%; and `COc1ccc(OC)c(CNC(=O)c2cc3c(=O)oc4ccc(C)cc4c3s2)c1`, with inactive: 90%. Then `Cc1ccc(Cl)cc1NC(=O)Cn1nnc2sc3c(c2c1=O)CCC(C(C)(C)C)C3` (configuration not stated), with inactive: 58%. Take `Cc1cccc(N(C)S(=O)(=O)c2nnc(NC(=O)C(C)(C)C)s2)c1`: the survival is inactive: 99%.

As for `COc1ccc(CCNc2ncnc3c2cnn3-c2ccc(F)cc2)cc1`, the survival was inactive: 61%.

For `CCCSc1nc2sc3c(c2c(=O)n1-c1ccc(C)cc1)CCCC3`, the survival was active: 8%. On to `CNc1nc(SC)nc(N(C)C#N)n1`, for which the survival is inactive: 104%. Then `CC(c1ccccc1)n1cc(C(=O)NCCN2CCCCCC2)nn1` (configuration not stated), with inactive: 103%; and `CCOC(=O)c1c(S(=O)(=O)NCC(=O)Nc2cccc(SC)c2)c(C)n(C)c1C`, with inactive: 83%.

`COc1ccc(NC(=O)CCCS(=O)(=O)c2nc(-c3ccccc3OC)cc(C(F)(F)F)n2)c(OC)c1`: the survival is active: 46%. Then `CC1=C(c2ccc(C(C)C)cc2)S(=O)(=O)NC1=NCc1ccc(OC(C)C)cc1`, with inactive: 93%; and `Cc1ccccc1NC(=O)C(C)Sc1nc2ccccc2c(=O)n1C` (configuration not stated), with inactive: 78%. Consider `CCOc1ccc(/C=C/C(=O)NCc2ccco2)cc1OC`, for which the survival was inactive: 83%. Then `Cn1c(SCC(=O)N2CCOCC2)ncc(C(=O)Nc2ccc(F)cc2)c1=O`, with inactive: 87%; and `Brc1cccc(-c2nn(-c3ccccc3)c3c2cnc2cc4c(cc23)OCO4)c1`, with inactive: 82%; and `COCCn1c(CNC(=O)c2ccccc2C)nc2cccnc21`, with inactive: 73%.

Turning to `Cc1ccc(C)c(CN2CCC(CNC(=O)C(CC(C)C)N3Cc4ccccc4C3=O)CC2)c1` (configuration not stated), the survival is inactive: 128%. Then `COc1ccc(NC(=O)Nc2cccc(-c3noc(C)n3)c2)cc1`, with inactive: 126%.

Take `O=C(c1cccs1)N1CCCc2cc(NS(=O)(=O)c3ccc(Br)cc3)ccc21`: the survival is inactive: 87%. Then `CCc1cccc(C)c1NC(=O)C1CCN(S(=O)(=O)c2cc(Br)cc3c2N(C(C)=O)CC3)CC1`, with inactive: 59%; and `c1ccc(-n2cnnn2)cc1`, with inactive: 112%.

As for `COc1cccc(-n2ccnc2SCC(=O)Nc2cccc3ccccc23)c1`, the survival was inactive: 129%. Turning to `O=C(NCc1ccccc1Cl)c1ccc2c(c1)ncn2-c1cccc(F)c1`, the survival was inactive: 72%. Then `COc1ccc(-n2c(CC3C(=O)Nc4ccc(C)cc43)nc3ccccc3c2=O)cc1` (configuration not stated), with inactive: 73%. Then `CC1Cc2ccccc2N1C(=O)CSc1ncccc1C(=O)O` (configuration not stated), with inactive: 84%. Then `Cc1ccc(CNC(=O)C2CCCN(c3nc4ccccc4n4cccc34)C2)cc1` (configuration not stated), with inactive: 64%. Regarding `COC(=O)c1ccc(NC(=O)Cn2cncn2)cc1`, the survival is inactive: 83%. As for `CC1CCN(CCCNC(=O)CN2C(=O)CSc3ccc(S(=O)(=O)N4CCCCC4)cc32)CC1`, the survival was inactive: 71%. Then `COc1ccc(C(C)NC(=O)CN(c2cc(OC)ccc2OC)S(=O)(=O)c2ccccc2)cc1` (configuration not stated), with inactive: 77%.

As to `COc1ccc(-c2noc(C3CCCN(C(=O)Nc4ccccc4)C3)n2)cc1` (configuration not stated), the survival is inactive: 71%.

For the compound `CCOc1ccccc1-n1c(N)c(C(=O)OC)c2nc3ccccc3nc21`, the survival is inactive: 80%. With `COc1ccc(-c2nsc(NC(=O)c3oc4ccc(Cl)cc4c3C)n2)cc1`, the survival is inactive: 61%.

On to `O=C(Nc1ccc(F)cc1)c1nc(SCc2ccccc2F)ncc1Cl`, for which the survival was inactive: 99%. Then `N#C/C(=C/c1ccc(O)cc1)c1nc(-c2ccc(-c3ccccc3)cc2)cs1`, with active: 9%; and `Cc1nc(-c2cccc(F)c2)sc1CCNC(=O)Cc1ccc(F)cc1`, with inactive: 107%; and `CCCSC1=NC2(CCN(C(=O)NC3CCCCC3)CC2)N=C1c1ccc(OC)cc1`, with inactive: 72%.

Consider `O=c1c2c3c(sc2nnn1CCCCOc1ccc(Cl)cc1)CCCC3`, for which the survival was inactive: 108%. Then `COc1cc(-c2noc(-c3cc4cccc(C)c4oc3=O)n2)cc(OC)c1OC`, with inactive: 92%; and `N#CC1=C2SCCN2C(=O)C(C#N)C12CCCCC2` (configuration not stated), with inactive: 99%; and `COc1cccc(CNC(=O)CN(c2ccc(C)cc2)S(=O)(=O)N(C)C)c1OC`, with inactive: 94%. Then `COc1ccc(-c2csc3ncnc(Nc4ccc(OC)cc4OC)c23)cc1`, with inactive: 64%.

With `COc1cccc(-c2nc3c(C#N)c[nH]n3c2NC2CCCCC2)c1`, the survival is inactive: 72%. For `N#CC1=C(N)N(c2ccc(Cl)cc2)C2=C(C(=O)CCC2)C1c1cc(CN2CCOCC2)cs1` (configuration not stated), the survival is inactive: 59%. Regarding `COc1cc(NS(=O)(=O)c2cc(Br)cc3c2N(C(C)=O)C(C)C3)cc(OC)c1` (configuration not stated), the survival is active: 20%. Then `O=C(NC1CCCCC1)c1ccc2c(c1)N(Cc1ccc(F)cc1)C(=O)c1ccccc1S2(=O)=O`, with inactive: 105%; and `COc1cccc(CNC(=O)Cn2c(=O)cc(C)c3c(C)nn(C)c32)c1OC`, with inactive: 80%. Then `Cc1cccc(N(C)C(=O)C2CCC(CNS(=O)(=O)c3cccc4nsnc34)CC2)c1` (configuration not stated), with inactive: 65%; and `Cc1ccc(OCCn2c(CNc3ccccc3C)nc3ccccc32)cc1`, with active: 42%; and `Cn1c(C(=O)NCc2ccccc2Cl)cc2sc(Cl)cc21`, with inactive: 64%. Then `Cc1cc(NC(=O)c2cnn(-c3ccccc3)c2-n2cccc2)ccc1Br`, with inactive: 63%. With `COc1ccc(CCC(=O)NCc2nc3cccnc3n2Cc2cccc(OC)c2)cc1`, the survival was inactive: 101%. As to `COc1ccc(Cl)cc1NC(=O)Cn1nc(C(F)(F)F)c2c1CCC2`, the survival was inactive: 72%. For the compound `CCC1CN(C(=O)N2CCC(C(=O)N3CCN(c4ccc(F)cc4)CC3)CC2)c2ccccc2O1` (configuration not stated), the survival was inactive: 62%.
